Results from the supplement of paper PMC4967469.
The IC50 comes from the fitted curve, where viability falls to half of the control; fits outside the tested doses are given as limits. AUC is the area under the same curve over the 256-fold range up to the top dose, as a fraction; the more sensitive the line, the further below 1. The top dose, if marked as inferred, comes from the curve model; the source does not state it. For some assays here: Drugs with an entry number were screened twice under separate entries, and the two screens often disagree.

The cell lines below were run with CC(C)=CC[C@@H](O)C1=CC(=O)c2c(O)ccc(O)c2C1=O [Shikonin] (assay: Viability of human cancer cell lines after 72 h of drug (GDSC screen)). Details: top dose 16 µM; top dose inferred.
Method: (§1)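 Human cancer cell lines in 384-well plates, medium with 10% serum, drug for 72 h over a 256-fold dose range (nine 2-fold or five 4-fold steps up to the top dose). Adherent lines were fixed and stained with the nucleic acid dye Syto60, suspension lines read with resazurin; signal relative to control wells, capped at 0 and 100%. One two-parameter sigmoid per drug and line, fitted in a mixed model over all curves with the slope shared within a line.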

Row | Cell Line | AUC | IC50
1 | H2591 (mesothelioma, adherent) | 0.55 | 1.43 µM
2 | KU-19-19 (bladder, adherent) | 0.707 | 3.82 µM
3 | MFE-319 (endometrium, adherent) | 0.309 | 0.297 µM
4 | NY (osteosarcoma, adherent) | 0.546 | 1.33 µM
5 | OVCAR-3 (ovary, adherent) | 0.377 | 0.442 µM
6 | PCI-30 (head and neck, adherent) | 0.704 | 4.34 µM
7 | PL4 (pancreas, adherent) | 0.417 | 0.589 µM
8 | RERF-LC-KJ (lung adenocarcinoma, adherent) | 0.568 | 1.55 µM
9 | RKN (ovary, adherent) | 0.619 | 2.17 µM
10 | RPMI-7951 (melanoma, adherent) | 0.218 | 0.154 µM
11 | SBC-3 (small cell lung carcinoma, adherent) | 0.509 | 1.06 µM
12 | SF295 (glioma, adherent) | 0.469 | 0.818 µM
13 | SK-LU-1 (lung adenocarcinoma, adherent) | 0.46 | 
14 | SK-MEL-28 (melanoma, adherent) | 0.863 | 13.4 µM
15 | SKN (uterus, adherent) | 0.457 | 0.743 µM
16 | SU-DHL-10 (B-cell lymphoma, suspension) | 0.086 | 0.0916 µM
17 | SW626 (ovary, adherent) | 0.424 | 0.596 µM
18 | SW1271 (small cell lung carcinoma, adherent) | 0.399 | 0.505 µM
19 | TOV-21G (ovary, adherent) | 0.444 | 0.692 µM
20 | TOV-112D (ovary, adherent) | 0.231 | 0.164 µM
21 | TT2609-C02 (thyroid, adherent) | 0.316 | 0.295 µM
22 | TYK-nu (ovary, adherent) | 0.57 | 1.57 µM

What follows are cell lines tested with Cc1cc(N2CCOCC2)cc2[nH]c(-c3c(NC[C@@H](O)c4cccc(Cl)c4)cc[nH]c3=O)nc12 [BMS-536924] in the same assay as above. Details: top dose 4 µM; screen: GDSC drug entry 1091; top dose inferred.
Method: as §1

Row | Cell Line | AUC | IC50
23 | A375 (melanoma, adherent) | 0.728 | 0.965 µM
24 | A549 (lung adenocarcinoma, adherent) | 0.788 | 2 µM
25 | A673 (rhabdomyosarcoma, adherent) | 0.789 | 1.57 µM
26 | CAL-78 (chondrosarcoma, adherent) | 0.968 | > 4 µM
27 | CL-34 (large intestine, adherent) | 0.902 | > 4 µM
28 | DIFI (large intestine, adherent) | 0.906 | > 4 µM
29 | H2591 (mesothelioma, adherent) | 0.957 | > 4 µM
30 | Jurkat (T-cell leukaemia, suspension) | 0.975 | > 4 µM
31 | KU-19-19 (bladder, adherent) | 0.915 | > 4 µM
32 | MFE-319 (endometrium, adherent) | 0.983 | > 4 µM
33 | NCI-H929 (myeloma, suspension) | 0.57 | 0.376 µM
34 | NCI-H2066 (small cell lung carcinoma, adherent) | 0.904 | > 4 µM
35 | NY (osteosarcoma, adherent) | 0.957 | > 4 µM
36 | OVCAR-3 (ovary, adherent) | 0.953 | > 4 µM
37 | PCI-30 (head and neck, adherent) | 0.982 | > 4 µM
38 | PL4 (pancreas, adherent) | 0.905 | > 4 µM

Row | Cell Line | AUC | IC50
39 | RERF-LC-KJ (lung adenocarcinoma, adherent) | 0.96 | > 4 µM
40 | RKN (ovary, adherent) | 0.944 | > 4 µM
41 | RPMI-7951 (melanoma, adherent) | 0.957 | > 4 µM
42 | SBC-3 (small cell lung carcinoma, adherent) | 0.884 | 3.64 µM
43 | SF295 (glioma, adherent) | 0.952 | > 4 µM
44 | SK-LU-1 (lung adenocarcinoma, adherent) | 0.873 | > 4 µM
45 | SK-MEL-28 (melanoma, adherent) | 0.902 | > 4 µM
46 | SKN (uterus, adherent) | 0.917 | > 4 µM
47 | SU-DHL-10 (B-cell lymphoma, suspension) | 0.995 | > 4 µM
48 | SW626 (ovary, adherent) | 0.893 | > 4 µM
49 | SW1271 (small cell lung carcinoma, adherent) | 0.887 | > 4 µM
50 | TOV-21G (ovary, adherent) | 0.927 | > 4 µM
51 | TOV-112D (ovary, adherent) | 0.89 | > 4 µM
52 | TT2609-C02 (thyroid, adherent) | 0.978 | > 4 µM
53 | TYK-nu (ovary, adherent) | 0.982 | > 4 µM

Each cell line was assayed with CNC(=O)c1ccc(Nc2cc(Nc3ccccc3S(=O)(=O)C(C)C)c3cc[nH]c3n2)nc1 [HG-5-113-01] in the same assay as above. Details: top dose 10 µM; top dose inferred.
Method: as §1

Row | Cell Line | AUC | IC50
54 | A375 (melanoma, adherent) | 0.665 | 1.64 µM
55 | A549 (lung adenocarcinoma, adherent) | 0.688 | 2.26 µM
56 | A673 (rhabdomyosarcoma, adherent) | 0.646 | 1.51 µM
57 | CAL-78 (chondrosarcoma, adherent) | 0.879 | > 10 µM
58 | CL-34 (large intestine, adherent) | 0.744 | 3.39 µM
59 | DIFI (large intestine, adherent) | 0.819 | 6.01 µM
60 | H2591 (mesothelioma, adherent) | 0.836 | 9.71 µM
61 | Jurkat (T-cell leukaemia, suspension) | 0.829 | 4.76 µM
62 | KU-19-19 (bladder, adherent) | 0.664 | 1.79 µM
63 | MFE-319 (endometrium, adherent) | 0.886 | > 10 µM
64 | NCI-H929 (myeloma, suspension) | 0.642 | 1.45 µM
65 | NCI-H2066 (small cell lung carcinoma, adherent) | 0.938 | > 10 µM
66 | NY (osteosarcoma, adherent) | 0.862 | 8.39 µM
67 | OVCAR-3 (ovary, adherent) | 0.722 | 2.86 µM
68 | PCI-30 (head and neck, adherent) | 0.852 | > 10 µM
69 | PL4 (pancreas, adherent) | 0.702 | 2.36 µM

Row | Cell Line | AUC | IC50
70 | RERF-LC-KJ (lung adenocarcinoma, adherent) | 0.882 | > 10 µM
71 | RKN (ovary, adherent) | 0.842 | 7.59 µM
72 | RPMI-7951 (melanoma, adherent) | 0.801 | 4.71 µM
73 | SBC-3 (small cell lung carcinoma, adherent) | 0.67 | 1.76 µM
74 | SF295 (glioma, adherent) | 0.757 | 3.7 µM
75 | SK-LU-1 (lung adenocarcinoma, adherent) | 0.693 | 2.55 µM
76 | SK-MEL-28 (melanoma, adherent) | 0.855 | 7.72 µM
77 | SKN (uterus, adherent) | 0.721 | 3.06 µM
78 | SU-DHL-10 (B-cell lymphoma, suspension) | 0.782 | 3.01 µM
79 | SW626 (ovary, adherent) | 0.758 | 4.07 µM
80 | SW1271 (small cell lung carcinoma, adherent) | 0.819 | 6.82 µM
81 | TOV-21G (ovary, adherent) | 0.665 | 1.88 µM
82 | TOV-112D (ovary, adherent) | 0.724 | 2.71 µM
83 | TT2609-C02 (thyroid, adherent) | 0.779 | 4.37 µM
84 | TYK-nu (ovary, adherent) | 0.77 | 4.07 µM

These cell lines were tested with Cc1ccc(-n2nc(C(C)(C)C)cc2NC(=O)Nc2ccc(OCCN3CCOCC3)c3ccccc23)cc1 [BIRB 0796] in the same assay as above. Details: top dose 10 µM; top dose inferred.
Method: as §1

Row | Cell Line | AUC | IC50
85 | A673 (rhabdomyosarcoma, adherent) | 0.986 | > 10 µM
86 | CL-34 (large intestine, adherent) | 0.984 | > 10 µM
87 | DIFI (large intestine, adherent) | 0.987 | > 10 µM
88 | H2591 (mesothelioma, adherent) | 0.981 | > 10 µM
89 | Jurkat (T-cell leukaemia, suspension) | 0.992 | > 10 µM
90 | KU-19-19 (bladder, adherent) | 0.98 | > 10 µM
91 | MFE-319 (endometrium, adherent) | 0.974 | > 10 µM
92 | NCI-H929 (myeloma, suspension) | 0.887 | 8.31 µM
93 | NCI-H2066 (small cell lung carcinoma, adherent) | 0.943 | > 10 µM
94 | OVCAR-3 (ovary, adherent) | 0.982 | > 10 µM
95 | PCI-30 (head and neck, adherent) | 0.979 | > 10 µM
96 | PL4 (pancreas, adherent) | 0.924 | > 10 µM
97 | RERF-LC-KJ (lung adenocarcinoma, adherent) | 0.96 | > 10 µM
98 | RKN (ovary, adherent) | 0.95 | > 10 µM
99 | RPMI-7951 (melanoma, adherent) | 0.978 | > 10 µM
100 | SBC-3 (small cell lung carcinoma, adherent) | 0.976 | > 10 µM
101 | SF295 (glioma, adherent) | 0.966 | > 10 µM
102 | SK-LU-1 (lung adenocarcinoma, adherent) | 0.957 | > 10 µM
103 | SK-MEL-28 (melanoma, adherent) | 0.986 | > 10 µM
104 | SKN (uterus, adherent) | 0.961 | > 10 µM
105 | SU-DHL-10 (B-cell lymphoma, suspension) | 0.995 | > 10 µM
106 | SW626 (ovary, adherent) | 0.983 | > 10 µM
107 | SW1271 (small cell lung carcinoma, adherent) | 0.976 | > 10 µM
108 | TOV-21G (ovary, adherent) | 0.983 | > 10 µM
109 | TOV-112D (ovary, adherent) | 0.985 | > 10 µM
110 | TT2609-C02 (thyroid, adherent) | 0.955 | > 10 µM
111 | TYK-nu (ovary, adherent) | 0.979 | > 10 µM
